{"source": "the supplement of paper PMC8728848", "binders": {"B1": {"name": "Nictaba (Nicotiana tabacum), Q94EW1 (protein)", "chain": "MQGQWIAARDLSITWVDNPQYWTWKTVDPNIEVAELRRVAWLDIYGKIETKNLIRKTSYAVYLVFKLTDNPRELERATASLRFVNEVAEGAGIEGTTVFISKKKKLPGELGRFPHLRSDGWLEIKLGEFFNNLGEDGEVEMRLMEINDKTWKSGIIVKGFDIRPN"}}, "experiment_in_all_cases": "glycan array binding signal (z-score within array); higher = stronger binding", "conditions_in_all_cases": "glycan notation: IUPAC condensed, linker removed", "key": {"[1]": {"molecular_target": "Fuc(a1-2)[Gal(a1-3)]Gal(b1-4)[Fuc(a1-3)]GlcNAc(b1-3)GalNAc", "how_it_was_run": "(§1)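 Glycan array data were curated from 3228 arrays in the Consortium for Functional Glycomics database and kept only where the protein sequence was available. Glycan names were converted to IUPAC-condensed notation, and columns mapping to the same glycan were averaged. The binding signal is a within-array Z-score, averaged across arrays of the same protein sequence at different concentrations or buffers and across linkers. Negative Z-scores can be read as non-binding.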"}, "[2]": {"molecular_target": "Fuc(a1-2)[Gal(a1-4)]Gal(b1-4)GalNAc", "how_it_was_run": "as §1"}, "[3]": {"molecular_target": "Fuc(a1-2)[Gal(a1-4)]Gal(b1-4)GlcNAc", "how_it_was_run": "as §1"}, "[4]": {"molecular_target": "Fuc(a1-2)[GalNAc(a1-3)]Gal", "how_it_was_run": "as §1"}, "[5]": {"molecular_target": "Fuc(a1-2)[GalNAc(a1-3)]Gal(b1-3)GalNAc(a1-3)[Fuc(a1-2)]Gal(b1-4)GlcNAc", "how_it_was_run": "as §1"}, "[6]": {"molecular_target": "Fuc(a1-2)[GalNAc(a1-3)]Gal(b1-3)GalNAc(b1-3)Gal(a1-4)Gal(b1-4)Glc", "how_it_was_run": "as §1"}, "[7]": {"molecular_target": "Fuc(a1-2)[GalNAc(a1-3)]Gal(b1-3)GlcNAc", "how_it_was_run": "as §1"}, "[8]": {"molecular_target": "Fuc(a1-2)[GalNAc(a1-3)]Gal(b1-3)GlcNAc(b1-2)Man(a1-3)[Fuc(a1-2)[GalNAc(a1-3)]Gal(b1-3)GlcNAc(b1-2)Man(a1-6)]Man(b1-4)GlcNAc(b1-4)GlcNAc", "how_it_was_run": "as §1"}, "[9]": {"molecular_target": "Fuc(a1-2)[GalNAc(a1-3)]Gal(b1-3)GlcNAc(b1-2)Man(a1-3)[Fuc(a1-2)[GalNAc(a1-3)]Gal(b1-3)GlcNAc(b1-2)Man(a1-6)]Man(b1-4)GlcNAc(b1-4)[Fuc(a1-6)]GlcNAc", "how_it_was_run": "as §1"}, "[10]": {"molecular_target": "Fuc(a1-2)[GalNAc(a1-3)]Gal(b1-3)GlcNAc(b1-3)GalNAc", "how_it_was_run": "as §1"}, "[11]": {"molecular_target": "Fuc(a1-2)[GalNAc(a1-3)]Gal(b1-3)GlcNAc(b1-6)GalNAc", "how_it_was_run": "as §1"}, "[12]": {"molecular_target": "Fuc(a1-2)[GalNAc(a1-3)]Gal(b1-4)Glc", "how_it_was_run": "as §1"}, "[13]": {"molecular_target": "Fuc(a1-2)[GalNAc(a1-3)]Gal(b1-4)GlcNAc", "how_it_was_run": "as §1"}, "[14]": {"molecular_target": "Fuc(a1-2)[GalNAc(a1-3)]Gal(b1-4)GlcNAc(b1-2)Man", "how_it_was_run": "as §1"}, "[15]": {"molecular_target": "Fuc(a1-2)[GalNAc(a1-3)]Gal(b1-4)GlcNAc(b1-2)Man(a1-3)[Fuc(a1-2)[GalNAc(a1-3)]Gal(b1-4)GlcNAc(b1-2)Man(a1-6)]Man(b1-4)GlcNAc(b1-4)GlcNAc", "how_it_was_run": "as §1"}, "[16]": {"molecular_target": "Fuc(a1-2)[GalNAc(a1-3)]Gal(b1-4)GlcNAc(b1-2)Man(a1-3)[Fuc(a1-2)[GalNAc(a1-3)]Gal(b1-4)GlcNAc(b1-2)Man(a1-6)]Man(b1-4)GlcNAc(b1-4)[Fuc(a1-6)]GlcNAc", "how_it_was_run": "as §1"}, "[17]": {"molecular_target": "Fuc(a1-2)[GalNAc(a1-3)]Gal(b1-4)GlcNAc(b1-3)Gal(b1-4)GlcNAc", "how_it_was_run": "as §1"}, "[18]": {"molecular_target": "Fuc(a1-2)[GalNAc(a1-3)]Gal(b1-4)GlcNAc(b1-3)Gal(b1-4)GlcNAc(b1-3)Gal(b1-4)GlcNAc", "how_it_was_run": "as §1"}, "[19]": {"molecular_target": "Fuc(a1-2)[GalNAc(a1-3)]Gal(b1-4)GlcNAc(b1-3)GalNAc", "how_it_was_run": "as §1"}, "[20]": {"molecular_target": "Fuc(a1-2)[GalNAc(a1-3)]Gal(b1-4)GlcNAc(b1-3)[Fuc(a1-2)[GalNAc(a1-3)]Gal(b1-4)GlcNAc(b1-6)]GalNAc", "how_it_was_run": "as §1"}, "[21]": {"molecular_target": "Fuc(a1-2)[GalNAc(a1-3)]Gal(b1-4)GlcNAc(b1-6)GalNAc", "how_it_was_run": "as §1"}, "[22]": {"molecular_target": "Fuc(a1-2)[GalNAc(a1-3)]Gal(b1-4)[Fuc(a1-3)]GlcNAc", "how_it_was_run": "as §1"}, "[23]": {"molecular_target": "Fuc(a1-2)[GalNAc(a1-3)]Gal(b1-4)[Fuc(a1-3)]GlcNAc(b1-3)GalNAc", "how_it_was_run": "as §1"}, "[24]": {"molecular_target": "Fuc(a1-2)[GalNAc(a1-4)]Gal(b1-4)GlcNAc", "how_it_was_run": "as §1"}, "[25]": {"molecular_target": "Fuc(a1-2)[GalNAc(b1-3)]Gal", "how_it_was_run": "as §1"}, "Fuc(a1-3)GlcNAc": {"molecular_target": "Fuc(a1-3)GlcNAc", "how_it_was_run": "as §1"}, "[26]": {"molecular_target": "Fuc(a1-3)[Gal(b1-4)]Glc6S", "how_it_was_run": "as §1"}, "[27]": {"molecular_target": "Fuc(a1-3)[Gal(b1-4)]GlcNAc", "how_it_was_run": "as §1"}, "[28]": {"molecular_target": "Fuc(a1-3)[Gal(b1-4)]GlcNAc(b1-2)Man", "how_it_was_run": "as §1"}, "[29]": {"molecular_target": "Fuc(a1-3)[Gal(b1-4)]GlcNAc(b1-2)Man(a1-3)[Fuc(a1-3)[Gal(b1-4)]GlcNAc(b1-2)Man(a1-6)]Man(b1-4)GlcNAc(b1-4)GlcNAc", "how_it_was_run": "as §1"}, "[30]": {"molecular_target": "Fuc(a1-3)[Gal(b1-4)]GlcNAc(b1-2)Man(a1-3)[Fuc(a1-3)[Gal(b1-4)]GlcNAc(b1-2)Man(a1-6)]Man(b1-4)GlcNAc(b1-4)[Fuc(a1-6)]GlcNAc", "how_it_was_run": "as §1"}, "[31]": {"molecular_target": "Fuc(a1-3)[Gal(b1-4)]GlcNAc(b1-3)Gal(b1-3)[Fuc(a1-4)]GlcNAc", "how_it_was_run": "as §1"}, "[32]": {"molecular_target": "Fuc(a1-3)[Gal(b1-4)]GlcNAc(b1-3)Gal(b1-4)[Fuc(a1-3)]GlcNAc", "how_it_was_run": "as §1"}, "[33]": {"molecular_target": "Fuc(a1-3)[Gal(b1-4)]GlcNAc(b1-3)Gal(b1-4)[Fuc(a1-3)]GlcNAc(b1-3)Gal(b1-4)[Fuc(a1-3)]GlcNAc", "how_it_was_run": "as §1"}, "[34]": {"molecular_target": "Fuc(a1-3)[Gal(b1-4)]GlcNAc(b1-3)GalNAc", "how_it_was_run": "as §1"}, "[35]": {"molecular_target": "Fuc(a1-3)[Gal(b1-4)]GlcNAc(b1-4)Gal(b1-4)[Fuc(a1-3)]GlcNAc", "how_it_was_run": "as §1"}, "[36]": {"molecular_target": "Fuc(a1-3)[Gal(b1-4)]GlcNAc(b1-4)Gal(b1-4)[Fuc(a1-3)]GlcNAc(b1-4)Gal(b1-4)[Fuc(a1-3)]GlcNAc", "how_it_was_run": "as §1"}}, "note": "The other results are listed elsewhere or left out."}
{"binder": "B1", "values": [{"measurement": "glycan array binding signal (z-score)", "setting": "[1]", "value": -0.275}, {"measurement": "glycan array binding signal (z-score)", "setting": "[2]", "value": -0.381}, {"measurement": "glycan array binding signal (z-score)", "setting": "[3]", "value": -0.271}, {"measurement": "glycan array binding signal (z-score)", "setting": "[4]", "value": -0.289}, {"measurement": "glycan array binding signal (z-score)", "setting": "[5]", "value": -0.297}, {"measurement": "glycan array binding signal (z-score)", "setting": "[6]", "value": -0.38}, {"measurement": "glycan array binding signal (z-score)", "setting": "[7]", "value": -0.331}, {"measurement": "glycan array binding signal (z-score)", "setting": "[8]", "value": -0.066}, {"measurement": "glycan array binding signal (z-score)", "setting": "[9]", "value": -0.158}, {"measurement": "glycan array binding signal (z-score)", "setting": "[10]", "value": -0.211}, {"measurement": "glycan array binding signal (z-score)", "setting": "[11]", "value": -0.388}, {"measurement": "glycan array binding signal (z-score)", "setting": "[12]", "value": -0.266}, {"measurement": "glycan array binding signal (z-score)", "setting": "[13]", "value": -0.305}, {"measurement": "glycan array binding signal (z-score)", "setting": "[14]", "value": -0.39}, {"measurement": "glycan array binding signal (z-score)", "setting": "[15]", "value": 1.25}, {"measurement": "glycan array binding signal (z-score)", "setting": "[16]", "value": -0.072}, {"measurement": "glycan array binding signal (z-score)", "setting": "[17]", "value": -0.278}, {"measurement": "glycan array binding signal (z-score)", "setting": "[18]", "value": -0.313}, {"measurement": "glycan array binding signal (z-score)", "setting": "[19]", "value": -0.281}, {"measurement": "glycan array binding signal (z-score)", "setting": "[20]", "value": -0.386}, {"measurement": "glycan array binding signal (z-score)", "setting": "[21]", "value": -0.389}, {"measurement": "glycan array binding signal (z-score)", "setting": "[22]", "value": -0.307}, {"measurement": "glycan array binding signal (z-score)", "setting": "[23]", "value": -0.272}, {"measurement": "glycan array binding signal (z-score)", "setting": "[24]", "value": -0.259}, {"measurement": "glycan array binding signal (z-score)", "setting": "[25]", "value": -0.291}, {"measurement": "glycan array binding signal (z-score)", "setting": "Fuc(a1-3)GlcNAc", "value": -0.277}, {"measurement": "glycan array binding signal (z-score)", "setting": "[26]", "value": -0.292}, {"measurement": "glycan array binding signal (z-score)", "setting": "[27]", "value": -0.306}, {"measurement": "glycan array binding signal (z-score)", "setting": "[28]", "value": -0.388}, {"measurement": "glycan array binding signal (z-score)", "setting": "[29]", "value": 5.57}, {"measurement": "glycan array binding signal (z-score)", "setting": "[30]", "value": 0.122}, {"measurement": "glycan array binding signal (z-score)", "setting": "[31]", "value": -0.266}, {"measurement": "glycan array binding signal (z-score)", "setting": "[32]", "value": -0.383}, {"measurement": "glycan array binding signal (z-score)", "setting": "[33]", "value": -0.388}, {"measurement": "glycan array binding signal (z-score)", "setting": "[34]", "value": -0.274}, {"measurement": "glycan array binding signal (z-score)", "setting": "[35]", "value": -0.209}, {"measurement": "glycan array binding signal (z-score)", "setting": "[36]", "value": -0.282}]}
